Measurements as given in the supplement of paper PMC3334620.
Over roughly 33,000 sequences, “E-score (-0.5 to 0.5)” has its median near -0.041; the highest 2% begin near 0.37. Some of the results follow.

biological target: T1, Ecm22 (UniProt Q05958); assay: PBM E-score (8-mer binding enrichment) (E-score (-0.5 to 0.5)); higher = stronger / more preferred TF binding; most listed sequences are background and not binding sites; details: protein concentration: 200 nM; construct: GST-full length
T1 sequence: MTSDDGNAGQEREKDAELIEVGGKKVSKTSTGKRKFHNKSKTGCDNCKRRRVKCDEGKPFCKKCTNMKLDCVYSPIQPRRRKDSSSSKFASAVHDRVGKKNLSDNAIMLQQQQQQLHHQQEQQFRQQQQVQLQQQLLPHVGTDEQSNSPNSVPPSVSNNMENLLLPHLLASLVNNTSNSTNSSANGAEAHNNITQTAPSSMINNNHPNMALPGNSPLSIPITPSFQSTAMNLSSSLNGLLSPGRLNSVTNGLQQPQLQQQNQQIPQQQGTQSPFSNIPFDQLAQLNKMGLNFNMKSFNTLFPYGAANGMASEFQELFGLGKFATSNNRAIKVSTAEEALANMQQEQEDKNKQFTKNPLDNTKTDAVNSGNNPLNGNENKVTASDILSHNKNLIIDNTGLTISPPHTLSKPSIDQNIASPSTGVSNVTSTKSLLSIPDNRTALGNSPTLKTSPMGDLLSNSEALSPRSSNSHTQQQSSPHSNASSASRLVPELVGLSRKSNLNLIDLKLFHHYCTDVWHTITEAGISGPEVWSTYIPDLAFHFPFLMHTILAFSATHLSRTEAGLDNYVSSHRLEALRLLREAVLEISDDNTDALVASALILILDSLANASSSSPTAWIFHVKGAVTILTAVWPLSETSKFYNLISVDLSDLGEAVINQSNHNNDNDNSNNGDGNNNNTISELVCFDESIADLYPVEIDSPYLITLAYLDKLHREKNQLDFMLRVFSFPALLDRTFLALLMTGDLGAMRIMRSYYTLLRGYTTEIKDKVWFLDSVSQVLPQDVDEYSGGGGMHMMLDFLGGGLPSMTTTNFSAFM
Experimental: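 Universal 'all 10-mer' protein binding microarrays (Agilent AMADID 015681) probed with GST-tagged S. cerevisiae TFs (full-length or DBD) made by in vitro transcription/translation (PURExpress), about 100-200 nM. Bound TF was detected with fluorescent anti-GST. Each ungapped 8-mer (which stands for itself and its reverse complement) is scored by the PBM enrichment score (E-score), a modified Wilcoxon-Mann-Whitney statistic from -0.5 to +0.5, computed with the Universal PBM Analysis Suite. Scale: above 0.35 generally sequence-specific binding.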

Sequence | PBM E-score
GCCCCCGC | -0.055
ACGGCCAT | 0.0573
GTCGATTA | 0.117
TCACGTAA | 0.00322
CGGCCAAA | -0.0669
ATTGTTAA | 0.00013
CACCGCTA | -0.0955
CTGTTAAG | -0.229
CTATCCCA | -0.0728
ACCTATGG | -0.153
GAGAAACC | -0.034
CCTCCTTA | 0.032
AGTAATTA | -0.26
AGACGAGG | 0.202
ACGTGTGA | -0.172
AACTCTTC | 0.0679
TAAACGTA | 0.38
ATCGCGTA | 0.191
ATAACGCC | -0.051
ACTGTTCG | 0.17
AACCGGTG | 0.0496
TAGTTTGA | 0.187

Sequence | PBM E-score
CTCGTACA | 0.489
GCTGGGCC | -0.213
CGGGAATC | -0.041
TATTCACA | -0.0158
CACTCGCG | 0.107
ATGTGGAA | 0.0668
GGAATAAC | 0.0574
CTGGTTAA | -0.0304
CCTCTTAG | -0.0405
ACTTCAGA | -0.0484
TAGCGCCA | -0.154
CGGTCAAC | 0.169
GACAACCA | 0.0407
CAACTGAG | 0.0787
TAGGGATA | -0.165
GAAGCCGA | -0.0879
AGACGCCG | 0.0356
CGGCCCAC | -0.235
GGCATCGA | -0.0797
AATACACA | 0.114
CCCTCCGC | -0.176
AGTAGTTC | -0.0387

Sequence | PBM E-score
AGGGTTGC | -0.128
CAAGCGCC | -0.148
CACAGGAC | -0.157
AAATCGAT | -0.0591
ACTTTAGG | -0.0481
ACCTAGAG | -0.00033
GTCGGGCA | -0.207
GGCGCTAA | -0.222
CCTCTCAG | -0.4
GACTCCGC | -0.185
CTTTGCAA | -0.0465
ACCCGTTG | -0.166
ACCGGAAC | 0.327
AGACGTTG | 0.0351
GAAAAGTC | 0.0197
AAGAGAGG | -0.104
AAATGTTG | -0.0471
TACATGGA | -0.119
AGAATGCT | -0.192
CCAGCCAC | -0.0994
CCCCGTAA | 0.211
GAGCCTAC | -0.268

Sequence | PBM E-score
ATGAAACG | 0.254
ATTATTGA | -0.0819
TGCGAAAA | 0.116
CCTCACGA | -0.173
AGCAAAGC | -0.151
TAACATTA | 0.00654
GTCCGGGA | -0.00898
ATAATTCC | -0.0852
ACCTACCC | -0.01
CCAATATC | -0.158
ATCTCACA | -0.136
CGTGCGAC | 0.246
TAGGACCA | -0.185
CATCCAAA | -0.0125
CACTTCGG | 0.0311
GGTTCTCA | -0.021
ATTATATG | -0.00425
AGTGGCAG | -0.355
CCCCGTAG | 0.0215
CTCAATGA | -0.256
ACCCGGTC | -0.0818
ACTTATTC | -0.0444

Sequence | PBM E-score
AAGCTTCG | 0.144
TCGTGCAA | 0.124
CGCATGAC | -0.036
AAGTTGAT | 0.0519
GAGGGTGC | -0.079
CCGGCTTC | -0.0485
ACTGATGC | 0.00393
AGTGTCTG | -0.0801
CCTCTCTC | -0.103
CATAATCA | 0.00695
AGACACCC | -0.153
AATCAAGC | -0.101
CAACTTAC | -0.12
CTGGCCCA | -0.307
AGGTGTCG | 0.0918
CATCAGGA | 0.139
AGCCGCTA | -0.0378
ATATGATA | 0.154
GGGAGGTA | 0.149
TCAGAGCA | -0.121
AAATTCCA | -0.108
